Test results from article PMC7776573.
Residue numbers refer to the chain shown, from its start. Names may count otherwise. Like-named read-outs stand apart in the source and are kept apart here. No constants are given. Whether binding was seen depends on the method and setting. Binding seen in cells or lysates may run through a third protein. Some entries that bind do so weakly or less than the wild type. Where a sequence is shown, tags or fusion partners need not be part of it.

By UniProt entry, the sequences of proteins in these tests, tags left out.
UniProt P35820: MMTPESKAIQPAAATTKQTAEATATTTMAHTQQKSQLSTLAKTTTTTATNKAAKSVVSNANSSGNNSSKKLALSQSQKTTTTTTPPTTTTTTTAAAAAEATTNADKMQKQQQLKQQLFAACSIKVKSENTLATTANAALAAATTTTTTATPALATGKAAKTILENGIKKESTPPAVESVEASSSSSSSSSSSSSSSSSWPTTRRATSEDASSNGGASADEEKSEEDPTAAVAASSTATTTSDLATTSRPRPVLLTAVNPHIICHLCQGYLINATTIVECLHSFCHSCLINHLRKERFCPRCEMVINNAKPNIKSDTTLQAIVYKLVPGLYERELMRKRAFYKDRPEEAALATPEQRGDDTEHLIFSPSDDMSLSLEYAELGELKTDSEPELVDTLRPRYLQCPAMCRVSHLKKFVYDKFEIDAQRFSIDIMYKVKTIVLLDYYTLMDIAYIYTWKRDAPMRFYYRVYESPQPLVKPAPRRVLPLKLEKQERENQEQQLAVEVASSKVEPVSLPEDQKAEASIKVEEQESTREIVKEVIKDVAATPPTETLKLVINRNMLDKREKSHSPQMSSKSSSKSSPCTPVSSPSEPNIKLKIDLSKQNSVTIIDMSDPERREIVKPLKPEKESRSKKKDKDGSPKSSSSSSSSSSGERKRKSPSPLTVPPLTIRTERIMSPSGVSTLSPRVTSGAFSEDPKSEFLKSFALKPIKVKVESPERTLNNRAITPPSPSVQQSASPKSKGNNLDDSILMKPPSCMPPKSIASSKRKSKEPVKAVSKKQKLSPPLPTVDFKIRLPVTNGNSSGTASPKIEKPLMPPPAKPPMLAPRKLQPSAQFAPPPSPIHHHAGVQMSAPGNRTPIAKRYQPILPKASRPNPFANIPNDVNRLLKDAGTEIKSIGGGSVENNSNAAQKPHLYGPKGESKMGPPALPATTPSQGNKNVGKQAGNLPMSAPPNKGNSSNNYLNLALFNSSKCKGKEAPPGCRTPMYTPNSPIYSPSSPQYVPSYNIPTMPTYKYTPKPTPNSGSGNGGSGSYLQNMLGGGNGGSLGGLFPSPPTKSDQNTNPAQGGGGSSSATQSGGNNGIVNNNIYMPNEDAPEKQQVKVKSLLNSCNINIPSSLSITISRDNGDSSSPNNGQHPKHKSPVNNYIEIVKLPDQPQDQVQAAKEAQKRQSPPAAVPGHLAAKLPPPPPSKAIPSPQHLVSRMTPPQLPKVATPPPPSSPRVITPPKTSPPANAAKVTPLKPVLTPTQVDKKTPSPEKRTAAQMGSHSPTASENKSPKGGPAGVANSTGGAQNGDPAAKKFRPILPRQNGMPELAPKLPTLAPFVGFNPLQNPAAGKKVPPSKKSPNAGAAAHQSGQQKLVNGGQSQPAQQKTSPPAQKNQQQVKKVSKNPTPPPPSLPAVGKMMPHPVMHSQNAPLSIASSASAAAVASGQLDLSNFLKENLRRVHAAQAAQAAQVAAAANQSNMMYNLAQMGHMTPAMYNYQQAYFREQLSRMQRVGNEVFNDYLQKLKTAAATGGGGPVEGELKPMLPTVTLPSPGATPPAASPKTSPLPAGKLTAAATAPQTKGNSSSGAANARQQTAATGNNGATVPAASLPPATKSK
UniProt P53034: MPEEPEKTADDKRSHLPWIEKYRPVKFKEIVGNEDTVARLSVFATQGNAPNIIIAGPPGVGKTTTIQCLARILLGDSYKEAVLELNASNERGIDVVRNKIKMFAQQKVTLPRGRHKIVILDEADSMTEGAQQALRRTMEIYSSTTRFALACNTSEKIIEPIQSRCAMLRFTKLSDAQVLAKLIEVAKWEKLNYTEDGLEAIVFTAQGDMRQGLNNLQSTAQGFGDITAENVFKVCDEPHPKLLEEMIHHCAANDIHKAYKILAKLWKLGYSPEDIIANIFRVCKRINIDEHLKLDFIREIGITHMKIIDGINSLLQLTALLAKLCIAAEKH

What was measured:
[1] = molecular target: T1, GST-Hs-EVH1 (human SMEK1^EVH1, aa 1-168) (human) (UniProt Q6IN85); assay: pull-down; GST or GST-fused bait immobilised on glutathione sepharose 4B; 35S-methionine-labelled IVTT prey; 90 min at 4°C in WB1 (50 mM HEPES pH 7.5, 150 mM NaCl, 2 mM MgCl2, 1 mM EGTA, 1 mM DTT, 0.1% Triton X-100) with protease inhibitors and 0.5 mg/ml BSA; SDS-PAGE and autoradiography; only the target purified
T1 sequence: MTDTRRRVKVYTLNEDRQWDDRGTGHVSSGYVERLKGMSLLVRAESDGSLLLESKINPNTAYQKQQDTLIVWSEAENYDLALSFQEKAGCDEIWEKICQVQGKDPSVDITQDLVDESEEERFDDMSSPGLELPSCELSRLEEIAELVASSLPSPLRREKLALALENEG

[2] = molecular target: T2, GST-EVH1 (Falafel Flfl^1-168aa, containing the EVH1 domain) (Drosophila melanogaster) (UniProt Q9VFS5); assay: as above
T2 sequence: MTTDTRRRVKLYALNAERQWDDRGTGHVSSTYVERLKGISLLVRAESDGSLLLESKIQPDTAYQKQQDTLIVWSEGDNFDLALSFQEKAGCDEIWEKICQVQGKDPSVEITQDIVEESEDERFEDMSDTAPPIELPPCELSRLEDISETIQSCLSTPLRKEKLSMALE

[3] = molecular target: T3, GST-Smk-1 (Falafel Flfl^169-361aa, containing the Smk-1 domain) (Drosophila melanogaster) (UniProt Q9VFS5); assay: as above
T3 sequence: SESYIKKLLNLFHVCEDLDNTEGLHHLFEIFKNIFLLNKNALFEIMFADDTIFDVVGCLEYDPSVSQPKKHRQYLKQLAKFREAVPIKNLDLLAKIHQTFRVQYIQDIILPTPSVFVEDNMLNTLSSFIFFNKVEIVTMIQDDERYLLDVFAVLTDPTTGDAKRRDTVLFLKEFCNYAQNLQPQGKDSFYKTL

[4] = molecular target: T1, GST-Hs-EVH1 (human SMEK1^EVH1, aa 1-168) (human); assay: as above; remark: listed apart in the source
[5] = molecular target: T2, GST-EVH1 (Falafel Flfl^1-168aa, containing the EVH1 domain) (Drosophila melanogaster); assay: as above; remark: listed apart in the source
[6] = molecular target: T4, GST-Hs-EVH1^L69A (human) (UniProt Q6IN85); assay: as above
T4 sequence: T1 sequence with L69A

[7] = molecular target: T5, GST-Dm-EVH1^L70A (Drosophila melanogaster) (UniProt Q9VFS5); assay: as above
T5 sequence: T2 sequence with L70A

[8] = molecular target: T6, GFP-Smk-1 (Drosophila melanogaster) (UniProt Q9VFS5); assay: co-IP; GFP-Smk-1 and Flag-tagged protein transiently co-expressed in D.Mel-2 cells; lysate in EB buffer; GFP-Trap magnetic agarose, 90 min at 4°C; immunoblot with anti-GFP and anti-FlagM2
T6 sequence: T3 sequence

Psc (from UniProt P35820 1-1601)
binding [1]: binds | binding [2]: binds

Rfc4 (from UniProt P53034 1-331)
binding [3]: binds | binding [2]: no binding

B1: CENP-C (protein, UniProt Q9VHP9 1-1411)
chain: MSKPQNNDTLELDDILSQPVKDKERFAAFMMRKLAENKPAQNDNLFGNFKLDFDLDFEVPLIKKSQAKPKSKLPEVQPLGELVSKNSAATEKVNEPPVDQAPNENVPPRRSPTLSPNNRRSMRRSGNVPGSDKLRRHAIRRRSRSCGRQLLPEFEETVNLTRSISSPVNFLPEISSTPCTEKQKEEVAKNTTRVETDKPAEKPMELSQEPEPENPLQTKVTSPARNPILAAEIEQICKERQSSFHKNVLQLDYSGRAPYSRPPTPSSPSVAGLRRTYTMEKGPAPGQLLLSPSHRYDTPSKMPVVKAKRFNQELMVPDTPERQSHDPAWQSEPQPEFVVPETQPQDLGELVQTLSRSAISPIVVINTSNSNRSVRRDAVAMKSVPTSPVTALSSPPIAPSPRRSAAASPQKSIAQLPRVEENMDAIMTDDESDEHPSTVPLNLAPSGGNTTRQRRLRSSNRARATIESQESSMRLLNLHKSVNAKKSKPRKTAIPLNKAPSAPINGEQFARELTRMSNYEILDLRKRNSLNEIYPLNGHRNHRSEKLILEEEIQRELLRRNLMDEAEGLPKQQSSDDSNEDYIPVPPKTQSLRTKSNDRSQGRGRPRSTRRDLPMTTELVNYLGLSQTLETRRKSSKDGKRCLYTKGSSDHEDNDSLSPVKLPRLSKSIQIVPPPPVSLRYSQSLQNLPCSGKFDFDNVVMAAPPDFHDSVNSDAIEIAPPPPEYVVNTRGRSTSGRKSNKNDLVLPPPGYEGGQEEEHDERPSQPRCTAKELQQSTQNGRRAMENELVPPPIEYVEEENRNNEQSRRSTKNGNLVDRNTHNAVEYCEPPEPPEYDDSDHGQASILRRSGKKLQHSKQSVQKSNKEQIIAPSYENNEDYDSDEEPIYNEEYGKEESQNKNVTRRKSDKDEMASHTLECIEGPDPNWNSSCNKQNRNHQNASKSKENDKLANRSSKSQKLSNPRQNAVGTEKSVALSNRGEECTEKSSDVMESLRVNTPTPPIDQNSDDVPSRNPSPSRTLLSDDVPSTSRAALEFLQRSQNMSKSRPPDESSADVVFKKPLAPAPRAKSKKGKSEVDKLKLAKMPVEAEELNTTGIRRSKRGQVPLQMSWCHTMDPSKFNFMSGFIEPRSKNSKTKKGNLSKAKKASATKPKPTVEKNLPDNRGPLCSSTPRISEKLPGAIPHSESLGLSTLTWEETEVQAEAEKVPKKRGRPKKAVGGVQTDTEAEPEPEPEPMISSVAPLTSDQEEPDVPDEQAPYTEAALGPVVFSTPLRDEQEEASTKLMQWLRGVGDAPPSASMSDENASVSSANELIFCQVDGIDYAFYNTKEKAMLGYMRFKPYQKRSMKQAKVHPLKLLVQFGEFNVETLAVGEEKEVHSVLRVGDMIEIDRGTRYSIQNAIDKVSVLMCIRS
modifications: 35S-methionine label
binding [4]: binds | binding [5]: binds | binding [6]: no binding | binding [7]: no binding

B2: Flag-Zw10 (protein, UniProt Q9W4X9 1-721)
chain: MEEEAPRFNVLEEAFNGNGNGCANVEATQSAILKVLTRVNRFQMRVRKHIEDNYTEFLPNNTSPDIFLEESGSLNREIHDMLENLGSEGLDALDEANVKMAGNGRQLREILLGLGVSEHVLRIDELFQCVEEAKATKDYLVLLDLVGRLRAFIYGDDSVDGDAQVATPEVRRIFKALECYETIKVKYHVQAYMLQQSLQERFDRLVQLQCKSFPTSRCVTLQVSRDQTQLQDIVQALFQEPYNPARLCEFLLDNCIEPVIMRPVMADYSEEADGGTYVRLSLSYATKEPSSAHVRPNYKQVLENLRLLLHTLAGINCSVSRDQHVFGIIGDHVKDKMLKLLVDECLIPAVPESTEEYQTSTLCEDVAQLEQLLVDSFIINPEQDRALGQFVEKYETYYRNRMYRRVLETAREIIQRDLQDMVLVAPNNHSAEVANDPFLFPRCMISKSAQDFVKLMDRILRQPTDKLGDQEADPIAGVISIMLHTYINEVPKVHRKLLESIPQQAVLFHNNCMFFTHWVAQHANKGIESLAALAKTLQATGQQHFRVQVDYQSSILMGIMQEFEFESTHTLGSGPLKLVRQCLRQLELLKNVWANVLPETVYNATFCELINTFVAELIRRVFTLRDISAQMACELSDLIDVVLQRAPTLFREPNEVVQVLSWLKLQQLKAMLNASLMEITELWGDGVGPLTASYKSDEIKHLIRALFQDTDWRAKAITQIV
binding [8]: binds

B3: Flag-Zw10(^238AxxA^241) (protein, UniProt Q9W4X9 1-721)
chain: B2 chain with F238A, P241A
binding [8]: binds

B4: Flag-Zw10(^438AxxA^441) (protein, UniProt Q9W4X9 1-721)
chain: B2 chain with F438A, P441A
binding [8]: binds
